{"source": "PubChem BioAssay AID686979", "about": "(National Center for Advancing Translational Sciences (NCATS), 2013)", "note": "The campaign covered roughly 420,000 compounds. About 50,000 (12%) were called active. The inconclusive results got no clear call from the source; some entries with a clear call stand among them for comparison. The call rests on the fitted dose curve; in most records, active means well fitted inhibition curve with a large enough effect; inconclusive means small, poorly fitted or top-dose-only effect; inactive means flat fitted curve, though single readings scatter. Potencies of inconclusive entries are left out as doubtful fits. Where a SMILES comes first, the peptide text is derived from it. The star is where a group is joined. Cbz = O=C(OCc1ccccc1)*", "data": [{"experiment": "qHTS for Inhibitors of human tyrosyl-DNA phosphodiesterase 1 (TDP1): qHTS in cells in presence of CPT; further: nearly all actives have a fitted effect of over 55% in size; further: potency means the concentration at half of the fitted maximal effect; tags describe the fitted curve by direction and shape; on activity change, negative = growth inhibition: on the % scale 0 is the no-effect control and ±100 the full control effect", "conditions": "chicken DT40 Tdp1-/-;hTDP1 cells + 20 nM CPT, ATP luminescence, 48 h; activity change, negative = growth inhibition: at 46.2 µM (top of the series) unless noted", "procedure,_shortened": "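Chicken DT40 Tdp1-/- cells complemented with human TDP1, 400 cells/well, exposed to compounds plus 20 nM camptothecin for at least 48 h at 37 C; viability read as ATP content by CellTiter-Glo luminescence.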", "values": [{"smiles": "CCOC(=O)c1ccc(NC(=O)c2c(-c3c(F)cccc3Cl)noc2C)cc1", "Potency": "inconclusive [inhibitor, single point]"}, {"smiles": "COc1ccccc1CNC(=O)c1nccnc1CO", "activity change, negative = growth inhibition": "inactive: 4.35%"}, {"smiles": "Cc1nc2cc(C(=O)N3c4ccccc4CC3C)ccc2s1", "note": "(configuration not stated)", "Potency": "inconclusive [inhibitor, single point]"}, {"smiles": "COc1cccc(C(=O)Nc2cccc(C(=O)OCc3cc(=O)n4nc(C5CC5)sc4n3)c2)c1", "Potency": "inconclusive [inhibitor, full curve]"}, {"smiles": "COc1ccc(NC(=O)C2CCCN(S(=O)(=O)c3ccccc3)C2)c(OC)c1", "note": "(configuration not stated)", "Potency": "inconclusive [inhibitor, single point]"}, {"smiles": "O=C(NC1CCCCC1)c1ccc(Cn2c(SCc3ccccc3F)nc3cccnc32)cc1", "Potency": "inconclusive [inhibitor, single point]"}, {"smiles": "Cn1nc(-c2ccc(Cl)cc2)cc1NC(=O)CCCC(=O)O", "activity change, negative = growth inhibition": "inactive: 3.34%"}, {"smiles": "CCOC(=O)c1cnn(-c2ccc(C(=O)Nc3cc(OC)c(OC)c(OC)c3)cc2)c1N", "Potency": "inconclusive [inhibitor, single point]"}, {"smiles": "CCC1(C)Cc2c(sc3nnn(CC(=O)Nc4ccccc4C)c(=O)c23)CO1", "note": "(configuration not stated)", "Potency": "inconclusive [inhibitor, single point]"}, {"smiles": "O=C(CSc1ccccc1)N1CCc2c([nH]c3ccccc23)C1c1ccc(F)cc1", "note": "(configuration not stated)", "Potency": "inconclusive [inhibitor, single point]"}, {"smiles": "CC(C)C[C@H](CO)Nc1nc(Nc2cccc(Cl)c2)c2ncn(C(C)C)c2n1", "Potency": "inconclusive [inhibitor, single point]"}, {"smiles": "COc1ccc(C)cc1NC(=O)CN1CCN(c2ccccc2F)CC1", "Potency": "inconclusive [inhibitor, single point]"}, {"smiles": "O=C(Cn1cc(C(=O)c2ccco2)c2ccccc21)Nc1ccc(Br)cc1", "Potency": "inconclusive [inhibitor, single point]"}, {"smiles": "COc1ccc(C(O)P(=O)(OC2CCCCC2)c2ccc(N(C)C)cc2)cc1OC", "note": "(configuration not stated)", "activity change, negative = growth inhibition": "inactive: -24.7%"}, {"smiles": "COC(=O)c1cc2oc3ccccc3c2n1Cc1nc(-c2ccc(OC)cc2)oc1C", "Potency": "inconclusive [inhibitor, partial curve, poor fit]"}, {"smiles": "O=C(/C=C/c1ccc(F)cc1)N1CCCc2ccccc21", "Potency": "inconclusive [inhibitor, single point]"}, {"smiles": "O=S(=O)(NCC1CCCO1)c1ccccc1F", "note": "(configuration not stated)", "activity change, negative = growth inhibition": "inactive: -1.8%"}, {"smiles": "O=C(NCC(=O)N(c1ccc(F)cc1)C(C(=O)NCC1CCCO1)c1ccccc1)c1ccco1", "note": "(configuration not stated)", "activity change, negative = growth inhibition": "inactive: -26.2%"}, {"smiles": "COc1cc([N+](=O)[O-])cc(/C=N/NC(=O)c2cccnc2)c1O", "Potency": "inconclusive [inhibitor, single point]"}, {"smiles": "O=C(Nc1nnc(COc2ccccc2F)s1)Nc1ccccc1F", "Potency": "inconclusive [inhibitor, single point]"}, {"smiles": "O=C(O)c1ccc(CSc2nnc(-c3ccccc3Cl)n2-c2ccccc2)cc1", "activity change, negative = growth inhibition": "inactive: 6.09%"}, {"smiles": "Cc1ccc(S(=O)(=O)c2cnc(-c3ccccc3)nc2N2CCCCC2)cc1", "Potency": "inconclusive [inhibitor, single point]"}, {"smiles": "Cn1c(=O)c2c(nc(NCCO)n2CCc2ccccc2)n(C)c1=O", "Potency": "active: 16.4 µM"}, {"smiles": "COc1ccc(NC2c3ccccc3C(=O)N2Cc2ccc3c(c2)OCO3)cc1", "note": "(configuration not stated)", "Potency": "inconclusive [inhibitor, partial curve]"}, {"smiles": "CCn1c(C(=O)NCCc2ccc(OC)c(OC)c2)cc2sc(Cl)cc21", "Potency": "active: 18.4 µM"}, {"smiles": "COc1ccccc1Nc1nnc(SCC(=O)Nc2cc(C)on2)s1", "activity change, negative = growth inhibition": "inactive: -0.994%"}, {"smiles": "COc1ccc(Cl)cc1NC(=O)c1c(NCc2ccc(C)o2)sc2c1CCCCC2", "Potency": "active: 9.2 µM"}, {"smiles": "c1ccc2c(NC3CC3)nc(-c3ccoc3)nc2c1", "Potency": "inconclusive [inhibitor, single point]"}, {"smiles": "CC(C)[C@H](NC(=O)N1CCn2c1nc1ccccc12)C(=O)NC1CCCCC1", "activity change, negative = growth inhibition": "inactive: -17%"}, {"smiles": "O=C(Nc1ccc(F)cc1)Nc1ccc(N2CCCC2)c(S(=O)(=O)Nc2ccccc2Cl)c1", "Potency": "active: 23.1 µM"}, {"smiles": "S=c1[nH]nc(-c2cccc(Cl)c2)n1/N=C/c1ccc(-c2ccccc2Br)o1", "Potency": "inconclusive [inhibitor, single point]"}, {"smiles": "COc1cccc(NC(=O)c2ccc3nc(CCc4ccccc4)oc3c2)c1", "Potency": "inconclusive [inhibitor, partial curve]"}, {"smiles": "CC(Oc1ccccc1)C(=O)NC1CCN(Cc2ccccc2)CC1", "note": "(configuration not stated)", "activity change, negative = growth inhibition": "inactive: -26.1%"}, {"smiles": "CC[C@@H]1CN(C)[C@H]2Cc3c([nH]c4ccccc34)C(=O)C[C@@H]1[C@@H]2C(=O)OC", "activity change, negative = growth inhibition": "inactive: -1.54%"}, {"smiles": "COc1ccc(CCNC(=O)CSc2nc(O)cc(=O)[nH]2)cc1OC", "activity change, negative = growth inhibition": "inactive: 0.547%"}, {"smiles": "COc1cc(OC)c(C(=O)NC2CCCc3ccccc32)cc1OC", "note": "(configuration not stated)", "Potency": "inconclusive [inhibitor, single point]"}, {"smiles": "CSc1ncc(Cl)c(C(=O)Nc2ccc(NC(C)=O)cc2)n1", "Potency": "inactive"}, {"smiles": "COC(=O)C1CCCN1C(=O)C1CCCN1C(=O)CNC(=O)OCc1ccccc1", "note": "(stereo not drawn) (Cbz-Gly-Pro-Pro-OMe; configuration not given here)", "Potency": "inconclusive [inhibitor, single point]"}, {"smiles": "Clc1ccc(CNC23CN4CN(CN(C4)C2)C3)c(Cl)c1", "Potency": "inconclusive [inhibitor, partial curve]"}, {"smiles": "CCC1CCCCN1C(=O)Cn1c(=O)n(CCCCCC(=O)NCc2ccccc2)c(=O)c2sccc21", "note": "(configuration not stated)", "Potency": "active: 16.4 µM"}, {"smiles": "O=[N+]([O-])c1ccc(N2CCNCC2)cc1Sc1nc2ccccc2[nH]1", "Potency": "inconclusive [inhibitor, single point]"}, {"smiles": "Cc1c(C(=O)N2CCOCC2)cc(C(C)(C)C)n1-c1ccccc1", "Potency": "inconclusive [inhibitor, partial curve]"}, {"smiles": "CNC(=O)C[C@H]1C(=O)N(c2ccccc2)C[C@@H]1Cc1ccccc1", "activity change, negative = growth inhibition": "inactive: -13.5%"}, {"smiles": "COc1cccc(CSc2nc3ccccc3c3nc(CCn4c(C)nc5ccccc54)nn23)c1", "activity change, negative = growth inhibition": "inconclusive: -30.3% [inhibitor]"}, {"smiles": "COc1cc(CNn2c(C)n[nH]c2=S)cc(Br)c1OCc1ccc(F)cc1", "activity change, negative = growth inhibition": "inactive: 2.12%"}, {"smiles": "O=C(CSc1nnnn1C1CCCCC1)N1c2ccccc2Sc2ccccc21", "Potency": "inconclusive [inhibitor, single point]"}, {"smiles": "COC(=O)c1cc2sccc2n1CC(=O)Nc1ccc(OC)c(OC)c1OC", "activity change, negative = growth inhibition": "inconclusive: -25.6% [inhibitor]"}, {"smiles": "COC(=O)/C(C#N)=C/c1c(N2CCN(c3ccccc3)CC2)nc2ccccn2c1=O", "activity change, negative = growth inhibition": "inactive: 16.9%"}, {"smiles": "CCS(=O)(=O)N1CCN(CC(=O)NC2CCCCC2)CC1", "Potency": "inconclusive [inhibitor, single point]"}, {"smiles": "N#Cc1ccccc1S(=O)(=O)N1CCN(C(=O)Cc2n[nH]c(=O)c3ccccc23)CC1", "activity change, negative = growth inhibition": "inactive: -0.966%"}, {"smiles": "C=CCOC(=O)/C(=C\\c1ccccc1)NC(=O)c1ccc(C)cc1", "activity change, negative = growth inhibition": "inactive: -22.8%"}, {"smiles": "CCCn1c2ccccc2c2cnn(CC(=O)N(C)c3ccc(F)cc3)c(=O)c21", "Potency": "active: 18.4 µM"}, {"smiles": "COc1ccc(-c2ccc(-c3noc(-c4ccco4)n3)c(OC)n2)cc1", "Potency": "inconclusive [inhibitor, single point]"}, {"smiles": "COc1ccccc1N(C)S(=O)(=O)c1ccc(C(=O)OCC(=O)c2c[nH]c3ccccc23)cc1", "Potency": "inconclusive [inhibitor, single point]"}, {"smiles": "Cc1onc(-c2ccccc2)c1C(=O)N1CCN(c2ccccc2)CC1", "Potency": "inconclusive [inhibitor, partial curve]"}, {"smiles": "C=CCn1c(C)cc(C(=O)Cn2c(C(C)O)nc3ccccc32)c1C", "note": "(configuration not stated)", "Potency": "active: 20.6 µM"}, {"smiles": "Cc1cccc2sc(NNC(=O)c3ccc(S(=O)(=O)N4CC(C)CC(C)C4)cc3)nc12", "note": "(configuration not stated)", "Potency": "active: 13 µM"}, {"smiles": "COc1ccc(-c2nc(CS(=O)CC(=O)NCc3ccco3)c(C)o2)cc1", "note": "(configuration not stated)", "Potency": "inconclusive [inhibitor, single point]"}, {"smiles": "CCOCCn1c(CN2CCc3ccccc3C2)nc2c1c(=O)n(C)c(=O)n2C", "Potency": "active: 23.1 µM"}, {"smiles": "NC(=O)c1nsc(C(=O)N(c2cccc(F)c2)C(C(=O)NCc2ccccc2)c2ccc(O)cc2)c1N", "note": "(configuration not stated)", "Potency": "inconclusive [inhibitor, single point]"}, {"smiles": "COc1ccccc1CNC(=O)C1CCCN(S(=O)(=O)c2cccs2)C1", "note": "(configuration not stated)", "activity change, negative = growth inhibition": "inactive: -0.681%"}, {"smiles": "Cc1ccc(-n2ncc(C(=O)NCc3ccccc3C)c2-n2cccc2)cc1", "Potency": "inconclusive [inhibitor, single point]"}, {"smiles": "Cc1cc(C)cc(OCCNC(=O)c2ccc(Br)cc2)c1", "activity change, negative = growth inhibition": "inactive: -15.5%"}, {"smiles": "O=C(NCc1ccc2c(c1)CCN2C(=O)c1ccc(F)cc1)c1cc2ccccc2[nH]1", "Potency": "active: 16.4 µM"}, {"smiles": "Cc1nc(-c2ccc(F)cc2)c(CC(=O)N(C)CC(=O)Nc2ccc(Br)cc2C)s1", "Potency": "inconclusive [inhibitor, partial curve]"}, {"smiles": "COCCCC1CCN(C(=O)c2cc(COc3ccc(C)nc3)on2)CC1", "Potency": "active: 18.4 µM"}, {"smiles": "COc1ccc(-c2[nH]c3ccccc3c2SCCNC(=O)c2cc(OC)c(OC)c(OC)c2)cc1", "Potency": "active: 5.17 µM"}, {"smiles": "COC(=O)C1=CN(Cc2ccc(OC)cc2)C=C(C(=O)OC)C1c1ccsc1", "Potency": "active: 20.6 µM"}, {"smiles": "CCN(CC)C(=O)CCSc1nnc(-c2ccco2)o1", "activity change, negative = growth inhibition": "inactive: 6.08%"}, {"smiles": "Cc1ccccc1NC(=O)Nc1nc(C(N)c2ccccc2)cs1", "note": "(configuration not stated)", "Potency": "inconclusive [inhibitor, single point]"}, {"smiles": "Cn1c(SCc2ccc(Cl)cc2)nc(C(F)(F)F)cc1=O", "Potency": "inconclusive [inhibitor, single point]"}, {"smiles": "COc1ccc(-c2nc(CSCC(=O)NCc3ccc4c(c3)OCO4)c(C)o2)cc1OC", "Potency": "inconclusive [inhibitor, single point]"}]}]}
